In PubChem BioAssay AID2675 (National Center for Advancing Translational Sciences (NCATS), 2010):
Out of some 280,000 compounds screened, about 100 (0.036%) were called active. Inconclusive means that the source gave no clear call. Such entries were picked first, then a sample of the others. The call rests on the fitted dose curve; in most records, active means well fitted inhibition curve with a large enough effect in the signal ratio, with a control signal flat (not every such curve was filed as active); inconclusive means small, poorly fitted or top-dose-only effect, or effect the other way, or a change in a side signal; inactive means no such curve, though single readings can be large or run the other way; the % refers to the signal ratio. A potency beside an inconclusive call is a rough fit, not a confirmed value. “Side channel” marks fits to a control or component signal instead of the main read-out.

These molecules were tested against Muscleblind-like protein 1 (Homo sapiens) (UniProt Q9NR56) (assay: qHTS Assay for Inhibitors of MBNL1-poly(CUG) RNA binding). Conditions: TR-FRET MBNL1-His/biotin-(CUG)12 binding, 665/545 ratio; activity change, negative = inhibition: at 57.5 µM (top of the series).
Sequence of UniProt Q9NR56 (Q9NR56 whole entry, looked up): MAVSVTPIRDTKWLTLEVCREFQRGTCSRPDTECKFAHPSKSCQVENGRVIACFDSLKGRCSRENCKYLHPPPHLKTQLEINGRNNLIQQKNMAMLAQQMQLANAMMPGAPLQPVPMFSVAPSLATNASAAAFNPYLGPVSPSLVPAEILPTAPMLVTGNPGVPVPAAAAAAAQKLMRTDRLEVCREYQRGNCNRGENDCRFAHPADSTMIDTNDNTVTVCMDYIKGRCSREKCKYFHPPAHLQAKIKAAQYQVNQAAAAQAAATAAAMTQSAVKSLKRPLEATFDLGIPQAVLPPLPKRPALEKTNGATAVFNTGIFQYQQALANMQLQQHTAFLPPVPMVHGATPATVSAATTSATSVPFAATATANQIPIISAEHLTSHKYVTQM
Outline: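 Compound titration spanned 92 nM–58 uM against the MBNL1-His/biotin-(CUG)12 complex. After 60 min at room temperature with 5 nM streptavidin-XL665 and 0.055 ng/ul terbium anti-His, ratiometric 665/545 nm emission (Ex 340 nm) normalized to controls.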
On the % scale 0 is the no-effect control and ±100 the full control effect; potency means the concentration at half of the fitted maximal effect; tags describe the fitted curve by direction and shape or compound fluorescence and quenching.

| SMILES | activity change, negative = inhibition | Potency |
| --- | --- | --- |
| Cc1c(NC(=S)NC(=O)c2ccc(COc3ccccc3)cc2)cccc1C(=O)O | inactive: 5.04% | – |
| CC(=O)CC(c1ccc([N+](=O)[O-])cc1)c1c(O)c2ccccc2oc1=O (configuration not stated) | – | inconclusive: 17.8 µM [quencher, side channel, partial curve] |
| O=C(COc1cccc2c1CCN(Cc1ccccc1F)C2=O)N1CCCCC1 | inactive: -4.21% | – |
| Nc1ccc(Cc2nc3cc4ccccc4cc3[nH]2)cc1 | – | inconclusive: 17.8 µM [quencher, side channel, partial curve] |
| CN(C)CCCNS(=O)(=O)c1ccc(N2CCC(c3ccc(Cl)cc3)=N2)cc1 | – | inconclusive: 28.2 µM [quencher, side channel, partial curve] |
| COc1cccc2cc(C(N)=O)/c(=N\NC(=O)c3ccccc3)oc12 | – | inconclusive: 10 µM [quencher, side channel, partial curve] |
| O=C1c2cccnc2C(=O)N1Cc1cccs1 | – | inconclusive: 20 µM [quencher, side channel, partial curve] |
| NC(=O)[C@@H]1CCOc2c(I)cc([N+](=O)[O-])cc2C(=O)N[C@@H](CO)C(=O)NCC(=O)N1 | – | inconclusive: 35.5 µM [quencher, side channel, single point] |
| Cc1ccc(CN2C3CCCC2CC(NC(=O)c2ccc(F)cc2)C3)cc1 (configuration not stated) | inactive: -4.35% | – |
| COC(=O)CN1C(=S)N(c2ccc(OC)cc2)C(=O)/C1=C/c1ccc(N2CCOCC2)cc1 | – | inconclusive: 12.6 µM [quencher, side channel, partial curve] |
| O=c1[nH][nH]c(-c2ccccc2)c1C=Nc1ccccc1 | – | inconclusive: 35.5 µM [quencher, side channel, single point] |
| Cc1ccc(NC(=O)CCNC(=O)Cn2cnc3ccccc3c2=O)cc1F | inactive: -1.15% | – |
| Cc1ccc(NC(=O)CCN2C(=O)c3cccc([N+](=O)[O-])c3C2=O)c(Br)c1 | – | inconclusive: 14.1 µM [quencher, side channel, partial curve] |
| N#C/C(=C\c1cccs1)C(=O)NCc1cccnc1 | – | inconclusive: 20 µM [quencher, side channel, partial curve] |
| CNS(=O)(=O)c1ccc2c3c(cccc13)C(=O)N2 | – | inconclusive: 14.1 µM [quencher, side channel, partial curve] |
| O=C(O)c1cc([N+](=O)[O-])ccc1NCCCc1ccccc1 | – | inconclusive: 28.2 µM [quencher, side channel, single point] |
| COc1cccc(NC(=O)C2CCCN(c3ncnc4c3nc3n4CCCCC3)C2)c1 (configuration not stated) | inactive: -5.89% | – |
